{"source": "PubChem BioAssay AID504832", "about": "(National Center for Advancing Translational Sciences (NCATS), 2011)", "note": "Among all 310,000 compounds or so, about 18,000 (5.8%) were called active. Inconclusive results, whose numbers are uncertain, are shown with a selection of clear calls. Calls follow the shape of the dose curve; as a rule, active = well fitted inhibition curve with a large enough effect; inconclusive = small, poorly fitted or top-dose-only effect, or another doubt; inactive = no such curve, though single readings can be large or run the other way. Potencies of inconclusive entries are left out as doubtful fits. % is scaled to controls: 0 for no effect and ±100 for the full control effect; potency is read from the fitted curve at half-maximal effect; tags tell the direction and shape of the fitted curve.", "data": [{"test": "Primary qHTS for delayed death inhibitors of the malarial parasite plastid, 48 hour incubation", "conditions": "P. falciparum luciferase growth in erythrocytes; series mostly up to 28.7 µM", "summary_of_the_method": "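A one-generation exposure of luciferase-tagged malaria parasites in RPMI 1640/Albumax erythrocyte culture, 37 C and 5% CO2. Inhibition is inferred from decreased luminescence after adding detection reagent.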", "values": [{"smiles": "COc1ccc(C(=O)c2c3ccc(C(F)(F)F)cc3[n+]([O-])n2CCCN)cc1", "Potency": "active: 11.7 µM"}, {"smiles": "N#CCCN(C1CCCCC1)S(=O)(=O)CCOc1ccccc1", "Potency": "inconclusive [inhibitor, single point]"}, {"smiles": "Cc1cc(N/N=C/c2ccncc2)nc2ccccc12", "Potency": "inconclusive [inhibitor, partial curve, poor fit]"}, {"smiles": "Cn1c(SCC(=O)NCC2CCCO2)nc2scc(-c3ccccc3)c2c1=O", "note": "(stereo unspecified)", "Potency": "inactive"}, {"smiles": "COc1ccc(NC(=O)COC(=O)c2c3c(nc4ccccc24)CCCC3)cc1Cl", "Potency": "active: 11.7 µM"}, {"smiles": "Nc1ccc(Nc2nc(-c3cc4ccccc4oc3=O)cs2)cc1", "Potency": "inactive"}, {"smiles": "S=C1NCN(CCc2ccccc2)CN1Cc1ccccc1", "Potency": "inactive"}, {"smiles": "CCCCN(C)C(=O)CNC(=O)c1nn(-c2ccc(OC)cc2OC)c(=O)c2ccccc12", "Potency": "inconclusive [inhibitor, partial curve]"}, {"smiles": "COc1ccc(C2C(C(=O)N3CCOCC3)CCC(=O)N2c2ccc(OC)cc2)cc1", "note": "(stereo unspecified)", "Potency": "inconclusive [inhibitor, full curve, poor fit]"}, {"smiles": "COc1cc2c(cc1OC)CN(C(=O)/C=C/c1cc(OC)c(OC)c(OC)c1)CC2", "Potency": "active: 2.62 µM"}, {"smiles": "O=C1CCN(CCCc2ccccc2)CCN1CCO", "Potency": "inconclusive [inhibitor, single point]"}, {"smiles": "CNC(=O)c1ccc(S(=O)(=O)c2ccc(Cl)cc2)c(NC(C)=O)c1", "activity change, negative = inhibition": "inactive: -6.49% [at 0.00184 µM]"}, {"smiles": "CCn1c(-c2cc(C3CC3)nc3ccccc23)n[nH]c1=S", "Potency": "inconclusive [inhibitor, single point]"}, {"smiles": "Cc1nn(-c2ccccc2)c(N2CCCC2)c1/C=N/NC(=O)C1CC1", "Potency": "active: 10.4 µM"}, {"smiles": "Cc1cc(NC(=O)CSc2nnc3ccc(-c4ccc(F)cc4)nn23)no1", "Potency": "inactive"}, {"smiles": "CC(C)(C)n1nc2c(c1NC(=O)c1cc([N+](=O)[O-])ccc1Cl)CS(=O)(=O)C2", "Potency": "inconclusive [inhibitor, single point]"}, {"smiles": "C=CCn1c(SCc2ccccc2C#N)nnc1-c1ccccc1O", "Potency": "inconclusive [inhibitor, partial curve, poor fit]"}, {"smiles": "C=CCN1CCN(C(=O)CCc2ccccc2)CC1", "Potency": "inactive"}, {"smiles": "Cc1ccc(C23CC4CC(CC(C(=O)N5CCN(C)CC5)(C4)C2)C3)cc1", "Potency": "inconclusive [inhibitor, single point]"}, {"smiles": "O=C1c2ccccc2C(=O)N1CCCCSc1nnc2ccccn12", "Potency": "active: 13.1 µM"}, {"smiles": "CCOC(=O)C1CCCN(S(=O)(=O)c2ccc(C)cc2)C1", "note": "(stereo unspecified)", "Potency": "inactive"}, {"smiles": "CC1CCCC(NC(=O)CCNS(=O)(=O)c2ccc(Br)cc2)C1C", "note": "(stereo unspecified)", "Potency": "inconclusive [inhibitor, partial curve]"}, {"smiles": "Cc1ccc(F)cc1NC(=O)CSCc1nc2sc(C)c(C)c2c(=O)[nH]1", "Potency": "inactive"}, {"smiles": "CC1(C)Cc2c(C#N)c(SCCOc3ccccc3)nc(N3CCOCC3)c2CO1", "Potency": "active: 11.7 µM"}, {"smiles": "COc1ccc(CNC(=O)C[C@H]2C(=O)N(Cc3ccc(OC)cc3)C[C@@H]2Cc2ccccc2)cc1", "Potency": "inconclusive [inhibitor, partial curve, poor fit]"}, {"smiles": "CCc1ccc2[nH]c(=O)c(C(c3nnnn3CCOC)N3CCN(c4ccccc4F)CC3)cc2c1", "note": "(stereo unspecified)", "Potency": "inconclusive [inhibitor, single point]"}, {"smiles": "CCc1ccc2[nH]c(=O)c(C(c3nnnn3CC3CCCO3)N3CCN4CCCC4C3)cc2c1", "note": "(stereo unspecified)", "Potency": "inconclusive [inhibitor, single point]"}, {"smiles": "Cc1cccc2c(-c3ccccc3)cc(=O)[nH]c12", "Potency": "inactive"}, {"smiles": "COc1ccc(-c2cc(-c3cccs3)c(C#N)c(SCC(=O)NCc3ccccc3)n2)cc1", "Potency": "inconclusive [inhibitor, full curve]"}, {"smiles": "Cc1ccccc1-c1nn(-c2ccc(F)cc2F)cc1CNCCCN(C)C", "Potency": "active: 2.62 µM"}, {"smiles": "O=C(NC(=O)c1ccccc1)C1=C(N2CCCC2)COC1=O", "Potency": "inactive"}, {"smiles": "Cc1cc(C)nc(N/N=C/c2ccc(Cl)cc2)n1", "Potency": "inactive"}, {"smiles": "COc1cccc(C(=O)NC2CCN(C(=O)N3c4ccccc4Sc4ccccc43)CC2)c1", "Potency": "active: 8.28 µM"}, {"smiles": "COc1ccc(CCNc2oc(-c3ccccc3OC)nc2C#N)cc1OC", "Potency": "inconclusive [inhibitor, single point]"}, {"smiles": "CCOCCCNC(=S)N1CCCN(c2nc3cc(C)c(C)cc3cc2C#N)CC1", "Potency": "inconclusive [inhibitor, single point]"}, {"smiles": "O=C(NCc1ccc(F)cc1)C1Cc2ccccc2CN1C(=O)c1ccco1", "note": "(stereo unspecified)", "Potency": "inactive"}, {"smiles": "c1ccc2c(CSc3ncnc4nc[nH]c34)cccc2c1", "Potency": "inconclusive [inhibitor, single point]"}, {"smiles": "CCOC(=O)N1CCN(C(=O)c2cn(-c3ccc(C)c(C)c3)c(=O)c3ccccc23)CC1", "Potency": "inconclusive [inhibitor, single point]"}, {"smiles": "CC(C)CC(NC(=O)OC(C)(C)C)c1cn([C@@H](CCC(=O)OC(C)(C)C)C(=O)N2CCN(C(=O)OC(C)(C)C)CC2)nn1", "note": "(stereo partly specified)", "Potency": "inconclusive [inhibitor, full curve]"}, {"smiles": "CCNc1c(C(=O)O)ccc2c1C(=O)c1ccccc1C2=O", "Potency": "inactive"}, {"smiles": "COc1ccc(-n2cnc3cc(C(=O)NC4CCCC4)ccc32)cc1", "Potency": "inconclusive [inhibitor, partial curve, poor fit]"}, {"smiles": "Cc1ccc(-c2nnc(SCC(=O)N3CCOCC3)nc2-c2ccc(C)cc2)cc1", "Potency": "inconclusive [inhibitor, single point]"}, {"smiles": "CC(=O)c1ccc(NC(=O)C2CCN(S(=O)(=O)c3ccc4c(c3)N(C(C)=O)CCO4)CC2)cc1", "Potency": "inconclusive [inhibitor, single point]"}, {"smiles": "COc1cc(OC)cc(C(=O)NC2CCN(Cc3nnnn3Cc3ccc(F)cc3)CC2)c1", "Potency": "inconclusive [inhibitor, partial curve]"}, {"smiles": "O=C(C1CCN(S(=O)(=O)c2ccccc2)CC1)N1CCCCCC1", "Potency": "inactive"}, {"smiles": "CC1C(=O)N2CCCc3cc(S(=O)(=O)NCc4ccccc4Cl)cc1c32", "note": "(stereo unspecified)", "Potency": "active: 13.1 µM"}]}]}
